Results reported in the supplement of paper PMC5499739.
In all, about 16,000 sequences were measured (“Z-score”: median about -0.37, highest 2% from about 3.1 on). Some of the results follow.

Tested on: RBM10 RRM1-ZnF-RRM2 (GST-tagged construct)
Test: RNAcompete 7-mer binding Z-score; higher = stronger binding preference
Procedure, shortened: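 Bound RNA was identified by microarray hybridisation after GST-tagged RBM10 constructs (20 pmol) had been mixed with 1.5 nmol of a designed pool of 241 399 RNAs up to 41 nt, transcribed from microarray-derived DNA templates. Binding ran for 30 min at 4°C in 1 ml Hepes pH 7.8 buffer with KCl, NaCl, glycerol, DTT, BSA and glutathione Sepharose beads, with four 2-min washes at 4°C afterwards. For every heptamer motif, a one-sided Z-score for enrichment was computed across the probes that contained it.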

In order of falling “RNAcompete 7-mer binding Z-score” value:
1. AGGGGAA  3.56
2. AGGGAAU  3.2
3. GGGUGUA  3.09
4. ACAUGGG  3.03
5. GGGACAA  2.85
6. ACGGGAG  2.63
7. GGUGGAC  2.45
8. CAGGGAU  2.41
9. GGAUAUG  2.41
10. CAAGGAG  2.31
11. ACUAGGG  2.08
12. GGGGGUC  2.06
13. AGCGGAA  2.02
14. GGGGGAC  1.91
15. GUAGAUG  1.67
16. AGCAGAG  1.55
17. UUUAGGG  1.51
18. AUUGGCG  1.47
19. GUAGAGA  1.44
20. AAAAGGC  1.4
21. GGUAUGU  1.33
22. GACUAGG  1.32
23. CGGAGAA  1.2
24. AUAGGCG  1.16
25. CCAAGGG  1.05
26. CGGCGGA  1.02
27. AUGUGAG  1.01
28. GUGGUCA  0.996
29. AGGAUGU  0.964
30. GCGGUGU  0.96
31. AAGAAGU  0.818
32. CGGGAUC  0.774
33. AAGUGUG  0.771
34. GUGAUGA  0.727
35. ACGGCGA  0.723
36. GAAUUAG  0.723
37. AAUAGAA  0.68
38. UACCGGG  0.658
39. AAUUGGC  0.65
40. GUGCGAA  0.614
41. CUAAAGG  0.505
42. GGCUAUG  0.476
43. AUGCAAG  0.443
44. CAGGCUG  0.417
45. AGGACAC  0.348
46. GUAUACG  0.268
47. UACAGUG  0.25
48. CCGGAUG  0.213
49. AGGACCG  0.166
50. GAAGUAC  0.13
51. UUGAUAG  0.119
52. AAAGUAA  0.111
53. CAGUUAG  0.108
54. GAGUUAU  0.0969
55. UGGCGCU  0.075
56. UAUGUGU  0.0641
57. UUCGGAA  0.0349
58. ACGGUUC  0.0277
59. AGUAUUG  0.024
60. UGUGAAU  0.00216
61. AAAAUGC  -0.00148
62. CUAGGCG  -0.00877
63. UUUUGGU  -0.0161
64. UUUUGGA  -0.0197
65. ACUAGUG  -0.027
66. UCCCGGU  -0.0306
67. AGUGUUA  -0.0306
68. GGUCUAA  -0.0598
69. GUUUUAG  -0.067
70. CGUCGUG  -0.0743
71. AGCGCGA  -0.0743
72. UGUGUCG  -0.114
73. AUUCGUG  -0.114
74. GAUAGCU  -0.118
75. GGUUCGC  -0.125
76. GCUCGUG  -0.14
77. GGCGCUC  -0.158
78. CAACGCG  -0.169
79. CGCAAUG  -0.169
80. ACAGCAC  -0.176
81. UAGGCGC  -0.18
82. CGUAUUG  -0.195
83. CCAAGCG  -0.202
84. UGGCAUC  -0.205
85. UCGUAUA  -0.209
86. GACGCAU  -0.231
87. GCCAAGC  -0.235
88. UCACAGA  -0.242
89. UAUGGCU  -0.253
90. AGAGUAC  -0.256
91. UAGCCAA  -0.278
92. UACACUG  -0.289
93. UAUAAGU  -0.289
94. ACGACGU  -0.289
95. GAUUGUU  -0.3
96. ACAACUA  -0.3
97. CCCCCAG  -0.304
98. AACCUGG  -0.322
99. GCAUCCC  -0.326
100. UUAGUUA  -0.329
101. GACACAA  -0.337
102. AUCGUGU  -0.351
103. UAGUGCC  -0.351
104. UAAAGUU  -0.355
105. GCGCACA  -0.38
106. GCCCAAG  -0.398
107. GCCUGGU  -0.398
108. GUUACCC  -0.413
109. ACAACCG  -0.42
110. AACAUGC  -0.435
111. CAUAUGU  -0.439
112. UGCGCCA  -0.442
113. UCGGUUC  -0.442
114. AAAUUGC  -0.464
115. AGACGAC  -0.468
116. GGCUCUA  -0.471
117. UGCGUUU  -0.475
118. AUGUGCC  -0.482
119. CACACGU  -0.482
120. CAACUGA  -0.497
121. CCUGGCA  -0.508
122. UAGCAUU  -0.515
123. CCGAUAG  -0.522
124. AGCAAUU  -0.526
125. GUCUCGA  -0.53
126. AUAUCCA  -0.53
127. CCUCCCA  -0.551
128. UUCAGUU  -0.566
129. UCACGAC  -0.573
130. UGAACUU  -0.581
131. UUUUCCA  -0.581
132. UACCCCA  -0.584
133. CUAUCAA  -0.588
134. CCCACGU  -0.595
135. UAUGUUC  -0.61
136. CUUGUAA  -0.621
137. CACGCAU  -0.621
138. CUGCAGC  -0.635
139. AUCCGAC  -0.635
140. UUCCCAC  -0.639
141. CAUAGAC  -0.646
142. UUUCCGU  -0.646
143. UGCUCAC  -0.65
144. UUAUCAU  -0.668
145. AUUCUUU  -0.683
146. ACCCAGA  -0.686
147. UGCCAUA  -0.69
148. GCUUAUC  -0.69
149. UAAGCUC  -0.704
150. UUCCUAA  -0.704
151. CAUUGUC  -0.708
152. UAUCUGA  -0.712
153. AAGACCU  -0.726
154. CACUAAU  -0.73
155. AACUCAU  -0.73
156. AUUGCUC  -0.748
157. AUCUCAA  -0.752
158. UCCAUUG  -0.759
159. CUCAAGC  -0.763
160. CUAGCCG  -0.77
161. CCACACU  -0.781
162. CAAACUU  -0.781
163. UGUUCGC  -0.785
164. CCUAUAG  -0.788
165. ACGCACU  -0.788
166. CAGCCCU  -0.803
167. CCUACUG  -0.832
168. CCAAACU  -0.839
169. CUCCUUU  -0.843
170. ACCGCAA  -0.85
171. AACGCUC  -0.85
172. ACAGCUU  -0.854
173. UACUCUU  -0.854
174. CACCUUC  -0.854
175. UACAUUC  -0.861
176. UCCAUUU  -0.872
177. GACCCUA  -0.887
178. CGCUGUU  -0.89
179. AUUACCC  -0.905
180. ACAUUUU  -0.93
181. ACCAUCC  -0.938
182. CCUUACA  -0.945
183. CGCCUUC  -0.959
184. CCUUUAA  -0.963
